Test results taken from PMC4336329 (PLoS ONE, 2015).
The whole screen tested about 310,000 compounds, of which about 14,000 (4.5%) showed an effect of 50% or more. The effect is printed as a negative number. This is one part of the list.

Biological target: human ether-à-go-go-related gene (hERG) potassium channel (human, UniProt Q12809)
Assay: primary screen, population patch clamp on CHO cells stably expressing hERG
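Further: peak tail current of the secondary pulse compared with the same well before compound.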

Sequence of human ether-à-go-go-related gene (hERG) potassium channel (Q12809 whole entry, looked up): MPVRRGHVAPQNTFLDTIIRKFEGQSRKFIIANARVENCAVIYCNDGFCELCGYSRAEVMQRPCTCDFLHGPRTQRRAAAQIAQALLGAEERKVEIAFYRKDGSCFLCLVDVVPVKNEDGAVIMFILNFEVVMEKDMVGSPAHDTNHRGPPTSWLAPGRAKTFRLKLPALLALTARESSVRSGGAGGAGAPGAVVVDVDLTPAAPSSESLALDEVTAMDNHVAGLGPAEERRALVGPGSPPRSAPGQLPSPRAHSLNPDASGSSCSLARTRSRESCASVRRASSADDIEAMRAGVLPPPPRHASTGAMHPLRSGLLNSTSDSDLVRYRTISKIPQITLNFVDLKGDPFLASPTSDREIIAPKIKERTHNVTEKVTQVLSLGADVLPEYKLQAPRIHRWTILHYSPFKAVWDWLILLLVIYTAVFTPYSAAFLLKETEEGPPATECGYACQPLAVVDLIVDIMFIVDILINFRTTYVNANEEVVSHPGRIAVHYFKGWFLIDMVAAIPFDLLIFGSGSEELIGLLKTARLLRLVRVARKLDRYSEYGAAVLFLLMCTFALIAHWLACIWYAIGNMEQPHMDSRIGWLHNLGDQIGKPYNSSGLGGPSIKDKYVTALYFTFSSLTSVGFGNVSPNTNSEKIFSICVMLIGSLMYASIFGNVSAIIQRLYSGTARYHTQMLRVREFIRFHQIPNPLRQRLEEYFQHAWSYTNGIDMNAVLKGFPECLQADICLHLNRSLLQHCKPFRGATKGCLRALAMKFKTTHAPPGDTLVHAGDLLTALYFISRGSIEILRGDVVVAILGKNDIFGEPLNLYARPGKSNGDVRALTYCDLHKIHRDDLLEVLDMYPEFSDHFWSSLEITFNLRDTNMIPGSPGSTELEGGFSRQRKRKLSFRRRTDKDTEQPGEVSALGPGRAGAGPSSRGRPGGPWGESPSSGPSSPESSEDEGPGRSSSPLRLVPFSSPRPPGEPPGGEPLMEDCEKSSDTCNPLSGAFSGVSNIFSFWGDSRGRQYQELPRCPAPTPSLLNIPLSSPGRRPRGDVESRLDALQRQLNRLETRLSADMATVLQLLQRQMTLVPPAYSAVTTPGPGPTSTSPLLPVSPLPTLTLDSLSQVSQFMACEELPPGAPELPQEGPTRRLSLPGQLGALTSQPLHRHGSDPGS

| Structure (SMILES) | hERG current change (%, negative = inhibition) at 10uM [%] |
| --- | --- |
| O=C(c1ccsc1)N1CCCC(N2CCN(c3cccc(C(F)(F)F)c3)CC2)C1 (centres unmarked) | -64.2 |
| Nn1cnnc1N/N=C/c1ccc(F)cc1 | 3.59 |
| O=C1C=C(c2cccs2)C[C@H](c2ccccc2)[C@H]1n1nnc([N+](=O)[O-])n1 | -3.92 |
| Cc1cccc(S(=O)(=O)Nc2ccc3c(c2)OCCO3)c1 | 12 |
| Cc1noc(C)c1Cc1c(Cl)cccc1Cl | 2.95 |
| COCCOC1CCN(C(=O)c2cc(COc3ccc(-n4cncn4)cc3)on2)CC1 | -22.8 |
| CCC(C)[C@H](NC(=O)NCCCOC(C)C)C(=O)OC (some centres unmarked) | 14 |
| CCn1c(COc2ccccc2)nnc1SCC(=O)C(C)(C)C | -14.2 |
| CC[C@@H](C)[C@H](CNC)NC[C@@H](Cc1cccc2ccccc12)NCCc1cccc(C(F)(F)F)c1 | -24.1 |
| C#CCOCCOCCOCCNc1nc(N2CCN(C(=O)Cn3cc(CC(C)O)nn3)CC2)nc(N2CCN(C(=O)[C@H](C)n3cc(CCC[NH+]=C(N)N)nn3)CC2)n1.[Cl-] (some centres unmarked) | 5.06 |
| COCCOCCn1c(/C=C/c2ccccc2)nc2ccccc21 | -11.9 |
| CN(C(=O)CSc1nnc(-c2cccnc2)o1)C1CCCCC1 | -6.01 |
| CCC(C)Sc1nc2ccccc2c(=O)[nH]1 (centres unmarked) | 1.6 |
| CCCn1nnnc1NCc1c(F)cccc1Cl | 12.9 |
| CC(C)c1ccc(NC(=O)C(c2ccccc2)N(C)C(=O)CCc2c[nH]c3ccccc23)cc1 (centres unmarked) | 5.79 |
| N#C/C=C(/N)N1CCN(c2ccc(Cl)c(Cl)c2)CC1 | -73.9 |
| CC(C)C(NC(=O)c1c(F)cccc1F)C(=O)NCc1ccc(S(=O)(=O)N2CCOCC2)cc1 (centres unmarked) | -7.99 |
| Cn1c(SCC(=O)Nc2nnc(-c3ccccc3)o2)nnc1C1CC1 | 9.79 |
| Cn1c(=O)c(=O)n(C)c2cc(S(=O)(=O)CCC(=O)Nc3c(F)c(F)c(F)c(F)c3F)ccc21 | 13.3 |
| CCOc1ccc(Br)cc1S(=O)(=O)Nc1ccc(Cl)c(S(=O)(=O)N(CC)c2ccccc2)c1 | 15 |
| COC(=O)C1=C(c2cccc(OCc3ccccc3)c2)C[C@@H]2CC[C@H]1N2C(=O)NCc1ccccc1OC | 12.6 |

| Structure (SMILES) | hERG current change (%, negative = inhibition) at 10uM [%] |
| --- | --- |
| O=C(CSc1nnc(Cc2ccc(Cl)cc2)o1)Nc1ccccc1 | 8.75 |
| CCN1C(=O)c2ccccc2Sc2ccc(C(=O)N3CCC4(CC3)OCCO4)cc21 | -3.07 |
| Cc1sc(NC(=O)CN2CCCC2)nc1-c1ccc2c(c1)CCN2C(=O)c1cccc(F)c1 | 4.33 |
| CC(C)CN(C(=O)CN(C)S(=O)(=O)c1ccc(Cl)cc1)C1CCS(=O)(=O)C1 (centres unmarked) | -34.3 |
| Cc1ccc(C(=O)N[C@H](C(=O)Nc2sccc2C(N)=O)C(C)C)cc1 | 5.47 |
| COc1ccc(CCNC(=O)c2c(-c3ccccc3)noc2C)cc1OC | 0.45 |
| COc1ccc(N2CCN(C(=O)CCCn3c(=O)c4cccn4c4cccnc43)CC2)cc1 | -2.97 |
| O=C(NCc1ccco1)c1nc(-c2ccccc2)n(-c2ccccc2)n1 | -17.8 |
| S=c1[nH]nc(COc2ccc(Cl)cc2)n1Cc1ccco1 | 7.78 |
| Cc1nc2ccc(C(=O)N3CCSCC3)cc2s1 | 7.13 |
| CC(C)NC(=S)NC1(C)CCS(=O)(=O)C1 (centres unmarked) | 15.2 |
| CCN(CC)c1ccc(NC(=O)c2cc3ccccc3o2)c(C)c1 | 8.99 |
| CCOC(=O)c1c(C)n(-c2ccc(C)cc2)c2ccc(OCC(O)CNCCCO)cc12.Cl (centres unmarked) | -36.3 |
| Cc1nc(N)sc1C(=O)N/N=C/c1ccc([N+](=O)[O-])cc1 | 2.89 |
| Cl.Nc1nc2nc[nH]c2c(=O)[nH]1 | 17.6 |
| COc1ccccc1Nc1nc(N)nc(CN(C)C2CCCCC2)n1 | -35.8 |
| CCOC(=O)c1ccc(N2C(=O)CC(N3CCC(O)(c4ccc(Br)cc4)CC3)C2=O)cc1 (centres unmarked) | -21.5 |
| CCN(CC)CCCNC(=O)c1cc2c(-c3ccc(Cl)cc3)nn(C)c2s1 | -59.9 |
| Cc1c(S(=O)(=O)c2ccccn2)c(N)n(Cc2ccccc2)c1C | 0.158 |
| COc1ccc(C(=O)n2nc(C#N)c(C#N)c2N)cc1 | 16.2 |
| COc1cccc(C(=O)Nc2nc(-c3ccccc3)c(-c3ccccc3)o2)c1 | -3.53 |

| Structure (SMILES) | hERG current change (%, negative = inhibition) at 10uM [%] |
| --- | --- |
| COc1cccc(NC(=O)Cn2c3ccc(F)cc3c3nc4n(c(=O)c32)CCCS4)c1 | 13.2 |
| CC[C@H](C)[C@@H](C(=O)N1CCNCC1)n1cc([C@@H](N)CO)nn1.Cl | 3.65 |
| COc1ccccc1N1CCN(C(=O)CSc2nc(-c3ccccc3)cc(=O)[nH]2)CC1 | 9.2 |
| O=C(NCCSc1ccccc1)c1ccc(Br)cc1 | 13.5 |
| CCC(c1nnc(SCC(=O)Nc2cc(Cl)ccc2C#N)n1C1CCCCC1)N(C)C (centres unmarked) | -23 |
| O=C(c1c[nH]c(=O)n(-c2ccccc2)c1=O)N1CCc2ccccc21 | 13.3 |
| Cc1ccc(NC(=O)/C=C/c2cccc([N+](=O)[O-])c2)nc1 | 13.7 |
| O=C1CC(c2ccco2)CC(O)=C1C=Nc1ccccc1-c1ccccc1 (centres unmarked) | 13.2 |
| [N-]=C=C1C(=S)NC(=O)[C@H]([n+]2ccccc2)[C@H]1c1ccc(Cl)cc1 | 15.9 |
| O=S(=O)(N/N=C/c1ccc2c(c1)OCCO2)c1ccc(Cl)cc1 | -5.58 |
| COc1ccccc1CNC(=O)C(=O)NCCC1CCCCN1S(=O)(=O)c1ccccc1 (centres unmarked) | 9.87 |
| O=C(c1cc2cc(F)ccc2[nH]1)N1CCN(Cc2ccc3c(c2)OCO3)CC1 | -0.31 |
| O=C(Nc1cccnc1)c1cccc(NC(=O)c2ccco2)c1 | -9.23 |
| COCCNC(=O)Cn1nc(C(F)(F)F)c(Br)c1C | -4.61 |
| COC(=O)CNC(=O)Cn1cnc2sc(C)c(S(=O)(=O)N3CCN(c4ccccc4OC)CC3)c2c1=O | 21.8 |
| CC(=O)Nc1ccc(NC(=O)C2CCCN(c3ncccn3)C2)cc1 (centres unmarked) | 2.63 |
| CC1CCCCN1CC(=O)c1c(N)n(Cc2ccccc2)c(=O)n(C)c1=O (centres unmarked) | -35.9 |
| O=C(Cn1nnc(-c2ccc3c(c2)OCO3)n1)NCc1ccco1 | 3 |
| Cc1oc(=O)c(NC(=O)c2cccc(Cl)c2)cc1C(=O)c1ccccc1 | 0.426 |
| O=S(=O)(c1ccc2ccccc2c1)N1CCOCC1 | 5.04 |
| CCN(Cc1ccccc1)C(=O)COc1cc(=O)n(CC)c2ccccc12 | -2.46 |

| Structure (SMILES) | hERG current change (%, negative = inhibition) at 10uM [%] |
| --- | --- |
| N=c1c2c(-c3ccccc3)c(-c3ccccc3)oc2ncn1Cc1ccco1 | 0.861 |
| CC(C)(C)NC(=O)C1CCN(S(=O)(=O)c2cccc3nsnc23)CC1 | 1.06 |
| Cc1cc(C)n(Cc2ccc(Cl)cc2Cl)c(=O)c1S(=O)(=O)c1ccccc1 | 14.7 |
| Cc1[nH]c(=O)c(C#N)c(C)c1CCC(=O)NCc1ccc(Cl)cc1 | 14.8 |
| C/C(=N\NC(=O)C(=O)Nc1ccc(C)c(Cl)c1)c1ccncc1 | -16.3 |
| Cc1ccccc1CSc1nc2[nH]ncc2c(=O)[nH]1 | 16.6 |
| CCN(CC)S(=O)(=O)c1ccc(OCC(=O)NC(=O)c2ccccc2OC)c([N+](=O)[O-])c1 | 13.5 |
| C/C(=C\c1ccc(N(C)C)cc1)[N+](=O)[O-] | 1.5 |
| CC1(c2ccc3ccccc3c2)NC(=O)N(CC(=O)N2CCN(Cc3ccccc3)CC2)C1=O (centres unmarked) | -6.05 |
| COc1ccc(-[n+]2c(C)cc(/C=C3\Sc4ccccc4N3C)cc2C)cc1.[I-] | -60.2 |
| C#CCOCCOCCOCCNc1nc(N2CCN(C(=O)C([C@@H](C)CC)n3cc(C(N)CO)nn3)CC2)nc(N2CCN(C(=O)C([C@@H](C)CC)n3cc(C(N)COC(=O)C(F)(F)F)nn3)CC2)n1.Cl (some centres unmarked) | 23.8 |
| CCOC(=O)c1ccccc1NC(=O)COC(=O)c1ccccc1C(=O)N(C)c1ccccc1 | -23.5 |
| CC(C)[C@H](NC(=O)C1CCN(C(=O)[C@@H]2CCCN2)CC1)C(=O)NCc1ccc(F)cc1 | 23.1 |
| CN(C(=O)CC(NC(=O)c1ccccc1Cl)c1ccccc1)c1ccccc1 (centres unmarked) | 2.21 |
| COc1ccccc1CNC(=O)C(=O)NCC1OCCN1S(=O)(=O)c1ccc2c(c1)OCCO2 (centres unmarked) | 0.723 |
| CC(=O)C1=C(C)N(CC2CC2)C(=O)N[C@H]1c1cccs1 | 4.67 |
| O=C(Nc1ccccn1)C1CCN(S(=O)(=O)c2ccccc2)CC1 | -14.5 |
| COc1ccc(NC(=O)COc2ccccc2)c(OC)c1 | -27.6 |
| Cc1ccc(C)c(Oc2cc(F)nc(N)n2)c1 | -1.39 |
| FC(F)(F)COc1nc(N2CCCCC2)nc(N2CCNCC2)n1 | -16.9 |
